# Experimental data as given in article PMC4336329 (PLoS ONE, 2015).
# Hit rate of the full screen: of about 310,000 compounds, about 2,200 (0.71%) showed an effect of 50% or more. Effects have a minus sign here. The list shows a part of the results.
# Molecular target: human ether-à-go-go-related gene (hERG) potassium channel (human, UniProt Q12809)
# Experiment: primary screen, population patch clamp on CHO cells stably expressing hERG
# Sequence of human ether-à-go-go-related gene (hERG) potassium channel (Q12809 whole entry, looked up): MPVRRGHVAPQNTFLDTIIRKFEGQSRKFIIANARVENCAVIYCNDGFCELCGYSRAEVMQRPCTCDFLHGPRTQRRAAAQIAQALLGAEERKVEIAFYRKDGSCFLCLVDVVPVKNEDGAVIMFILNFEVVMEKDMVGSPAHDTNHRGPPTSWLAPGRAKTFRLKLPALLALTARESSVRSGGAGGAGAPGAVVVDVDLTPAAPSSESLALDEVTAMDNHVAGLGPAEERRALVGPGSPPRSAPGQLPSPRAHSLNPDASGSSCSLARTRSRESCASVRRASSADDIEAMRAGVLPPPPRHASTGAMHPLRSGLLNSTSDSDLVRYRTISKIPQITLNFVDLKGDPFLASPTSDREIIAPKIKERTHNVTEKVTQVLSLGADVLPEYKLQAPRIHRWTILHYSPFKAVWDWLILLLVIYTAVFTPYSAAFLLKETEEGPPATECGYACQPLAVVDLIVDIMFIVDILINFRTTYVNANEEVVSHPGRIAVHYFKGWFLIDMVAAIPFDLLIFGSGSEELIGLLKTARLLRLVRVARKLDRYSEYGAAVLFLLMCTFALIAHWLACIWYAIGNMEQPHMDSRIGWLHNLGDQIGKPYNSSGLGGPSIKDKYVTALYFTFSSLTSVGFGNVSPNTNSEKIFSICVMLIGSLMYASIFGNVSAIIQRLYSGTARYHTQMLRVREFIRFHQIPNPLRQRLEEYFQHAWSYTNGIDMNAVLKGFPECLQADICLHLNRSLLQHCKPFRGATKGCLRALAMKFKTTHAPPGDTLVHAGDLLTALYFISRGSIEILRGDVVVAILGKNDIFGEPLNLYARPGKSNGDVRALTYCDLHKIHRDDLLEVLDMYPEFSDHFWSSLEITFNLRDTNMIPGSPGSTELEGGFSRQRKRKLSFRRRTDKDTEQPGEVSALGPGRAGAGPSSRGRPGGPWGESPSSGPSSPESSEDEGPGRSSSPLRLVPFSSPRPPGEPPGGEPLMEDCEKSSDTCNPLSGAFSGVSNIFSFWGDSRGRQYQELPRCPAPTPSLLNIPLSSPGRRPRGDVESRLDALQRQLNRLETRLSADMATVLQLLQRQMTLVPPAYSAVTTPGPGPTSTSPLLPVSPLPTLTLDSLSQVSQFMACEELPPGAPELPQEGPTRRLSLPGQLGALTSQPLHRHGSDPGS
row,Compound,"hERG current change (%, negative = inhibition) at 1uM [%]"
1,CCOCCCNC(=O)CN1C(=O)c2cccc3cccc1c23,19.1
2,Cc1nc(NC(=O)CSc2cc(C)c3ccccc3n2)c(Cl)cc1Cl,6.57
3,CCOc1ccc(N=C/C=C/c2ccccc2)c(O)c1,8.26
4,COc1ccccc1CNC(=O)COc1ccc(C)nc1[N+](=O)[O-],15.5
5,CCCn1c(SCC(=O)NC(C)(C)C)nnc1-c1ccco1,14.2
6,CN1CCN(CC(=O)N2c3ccccc3C(=O)Nc3cccnc32)CC1.Cl,10.2
7,Cc1ccc(C)c(OCCC(=O)OCC(=O)Nc2ccc(C)c(S(=O)(=O)N3CCCCC3)c2)c1,4.1
8,COc1ccc(S(=O)(=O)CCc2nnc(NC(=O)c3ccc(F)cc3)s2)cc1,8.55
9,CCc1ccccc1NC(=O)CCS(=O)(=O)c1ccc2c(c1)CCCN2C(C)=O,11.2
10,COc1ccc(C(=O)NC(=S)N(C)Cc2ccccc2)cc1Br,15
11,O=C(c1ccccc1)N1CCN(C(=O)c2nn3c(C(F)(F)F)cc(-c4ccco4)nc3c2Br)CC1,1.06
12,CCN(CC)CCCNC(=O)c1ccc(N2CCCCC2)c(NS(=O)(=O)c2ccc(C)cc2)c1,-7.19
13,COc1ccc(C(C)=O)cc1COC(=O)c1cc(C)oc1C,9.94
14,CC(=O)Nc1cccc(C(=O)/C=C/c2ccc[nH]2)c1,10.8
15,Cc1cc(C(=O)CSc2nnnn2C)c(C)n1CCc1ccc(F)cc1,11.1
16,O=C(Nc1ccc(S(=O)(=O)N2CCCC2)cc1)c1cccc(OC(F)F)c1,19.7
17,Cc1ccc(C2=NS(=O)(=O)N(C)C(C(=O)Nc3ccc(F)cc3F)=C2)cc1,-1.18
18,Cc1cc(C(=O)OCC(=O)Nc2ccc(S(=O)(=O)N3CCOCC3)cc2)c(C)o1,11
19,COC(=O)[C@@H]1CC[C@H](C)[C@@H](c2ccc(C)cc2)N1C(=O)c1ccc(/C=N/O[C@@H](C)CN2CCCCc3nc(C)c(C)cc32)cc1,7.81
20,CCOC(=O)NC(N(O)c1cccc(Cl)c1)C(Cl)(Cl)Cl (stereo not drawn),2.15
21,COc1ccc(NC2=CC(c3ccc(OC)c(OC)c3)N(c3ccc(OC)cc3)C2=O)cc1 (stereo not drawn),6.8
22,Cn1cc(Br)c(C(=O)Nc2nccs2)n1,5.26
23,CCc1ccc(OCc2nc(-c3ccccn3)no2)c(Br)c1,10.5
24,CC(C)c1ccc(/C=C/C(=O)n2nnc3ccccc32)cc1,15.1
25,C=CCOC(=O)C1C(=O)CC(C)(O)C(C(=O)OCC=C)C1c1ccc(OC)cc1 (stereo not drawn),8.88
26,Cc1cccc(C)c1N1C(=O)C(Cl)=C(N2CCCC2)C1=O,12
27,CCCN1CNc2c(c(=O)[nH]c(=S)n2CCc2ccc(OC)c(OC)c2)C1,13.4

row,Compound,"hERG current change (%, negative = inhibition) at 1uM [%]"
1,COc1ccc(NC(=S)N(CCN2CCCCC2)Cc2ccco2)cc1,-9.86
2,CC(C)(C)c1ccc(OCC(=O)N/N=C/c2cc(Br)ccc2OC(=O)c2ccco2)cc1,19.3
3,O=C(CN1CCOCC1)N1CCN(c2ccc([N+](=O)[O-])cc2)CC1,-23.5
4,CCCn1nc(C(=O)Nc2ccc(S(=O)(=O)Nc3ncccn3)cc2)c2ccccc2c1=O,15.1
5,COc1ccc(C(=O)O)cc1S(=O)(=O)N1CCN(c2ccccn2)CC1,18.2
6,CCOC(=O)c1ccc(Nc2nc(C)cc(C)n2)cc1,9.94
7,O=C(CC12CC3CC(CC(C3)C1)C2)NCC(=O)N1CCCC1,9.16
8,COc1ccc(Cl)cc1C(=O)NNC(=O)C1COc2ccccc2O1 (stereo not drawn),6.95
9,CC1(C)CC(NC2C3CC4CC(C3)CC2C4)CC(C)(C)N1.Cl (stereo not drawn),13.5
10,COc1ccc(C2C(=O)N(C3CCCCC3)CC(=O)N2C2CCCCC2)cc1 (stereo not drawn),-18
11,COc1ccccc1NS(=O)(=O)c1ccc(O)c(C(=O)OCc2cccc([N+](=O)[O-])c2)c1,9.96
12,Cc1ncc([N+](=O)[O-])n1CCOc1nonc1N,3.79
13,COC(=O)C1=C(c2ccccc2OCc2ccccc2)C[C@@H]2CC[C@H]1N2C(=O)NCc1ccc(N(C)C)cc1,19.8
14,O=C(CN(C(=O)CNC(=O)c1ccco1)c1ccc(F)cc1)NC1CCCC1,9.54
15,O=C(c1cccc(S(=O)(=O)Nc2ccccc2Cl)c1)N1CCN(C(=O)c2ccco2)CC1,11.6
16,COc1ccc(CNC(=O)CN(c2ccc(C)cc2)S(=O)(=O)c2c(C)noc2C)cc1,14
17,CCOC(=O)c1ccccc1NC(=O)COC(=O)CC1CCCCC1,5.51
18,COc1ccc(NC(=O)c2cc(C)nc3ccccc23)cc1S(=O)(=O)Nc1ccccc1Cl,10
19,CCCCc1nc(SCCOC)c2c(=O)n(C)c(=O)n(C)c2n1,6.1
20,CCn1c(SCC(=O)NCCc2ccccc2)nnc1-c1ccco1,1.26
21,COc1ccc(CSc2ncnc3sccc23)cc1F,14.2
22,O=C(CC(c1ccccc1)c1ccccc1O)N1CCCC1 (stereo not drawn),2.33
23,CCOC(=O)[C@H]1[C@H]2COc3ccc(Br)cc3[C@@H]2N2C(=O)CN(Cc3ccc(F)cc3)C(=O)[C@@]12C,11.9
24,Cn1c(SCc2ccc(F)cc2Cl)nc2ccccc2c1=O,14.4
25,c1ccc(Cc2nc3ccccc3n2Cc2ccccc2)cc1,-0.477
26,O=C(CCNNC(=O)c1ccncc1)NCc1ccccc1,11.9
27,C[C@@H](NC(=O)c1ncn(C)c1C(=O)N[C@H](C)c1ccccc1)c1ccccc1,12
